{
  "source": "PubChem BioAssay AID2546",
  "about": "(National Center for Advancing Translational Sciences (NCATS), 2010)",
  "note": "Among all 310,000 compounds or so, about 11,000 (3.5%) were called active. The inconclusive results got no clear call from the source; some entries with a clear call stand among them for comparison. Calls come from the whole dose curve; as a rule, active = well fitted inhibition curve with a large enough effect; inconclusive = small, poorly fitted or top-dose-only effect, or effect the other way; inactive = flat fitted curve, though single readings scatter. No potency is given beside an inconclusive call; the fits are too rough. Potency is the fitted concentration of half-maximal effect; tags give direction and shape of the fitted curve.",
  "data": [
    {"experiment": "VP16 counterscreen qHTS for inhibitors of ROR gamma transcriptional activity;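 note: Gal4-VP16 expression switched on by copper sulfate through the metallothionein promoter; nearly all actives have a fitted effect of over 50% in size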", "conditions": "Drosophila S2 Gal4-VP16 UAS-luciferase, luminescence, 20 h; series mostly up to 53.6 µM", "values": [
      {"smiles": "O=C(CN1CCN(C(=O)c2ccco2)CC1)Nc1cc(Cl)ccc1Cl", "Potency": "inactive"},
      {"smiles": "Cc1nonc1NC(=O)OC1CCCCC1", "Potency": "inconclusive [inhibitor, single point]"},
      {"smiles": "COC(=O)Cc1ccc(NC(=S)N2CCCC(C)C2)cc1", "note": "(configuration not stated)", "Potency": "active: 11.2 µM"},
      {"smiles": "Cc1cc(C)c2c(C)c(C(=O)NCc3ccc(S(N)(=O)=O)cc3)oc2c1", "Potency": "inconclusive [activator, single point]"},
      {"smiles": "COc1ccc(NS(=O)(=O)c2ccc(N3CCCC3)c(N)c2)cc1", "Potency": "inconclusive [inhibitor, partial curve]"},
      {"smiles": "CCCOc1ccc(-c2nc(N3CCN(C)CC3)c3ccccc3n2)cc1", "Potency": "inactive"},
      {"smiles": "Cc1cc(C)n(-c2nc(NCC(C)O)c3c4c(sc3n2)COC(C)(C)C4)n1", "note": "(configuration not stated)", "Potency": "active: 10 µM"},
      {"smiles": "COC(=O)c1[nH]c2c(c1C)C(=O)CC(c1cc(OC)c(OC)c(OC)c1)C2", "note": "(configuration not stated)", "Potency": "inconclusive [inhibitor, single point]"},
      {"smiles": "Cc1ccc2c(c1)NC(=O)C(CC(=O)NCCCN1CCN(c3cc(C)ccc3C)CC1)O2", "note": "(configuration not stated)", "Potency": "inactive"},
      {"smiles": "COc1ccc([N+](=O)[O-])c(S(=O)(=O)c2ccc(Cl)cc2)n1", "Potency": "inconclusive [inhibitor, single point]"},
      {"smiles": "COc1cc(NC(=O)c2cncc(-c3ccc(C#N)cc3)c2)cc(C(=O)Nc2cccc(C(F)(F)F)c2)c1", "Potency": "inconclusive [inhibitor, partial curve]"},
      {"smiles": "CCN(/N=C/c1ccc(N(C)C)cc1)c1nc2ccccc2[nH]1", "Potency": "inconclusive [inhibitor, single point]"},
      {"smiles": "COc1ccc2cc(C(=O)N3CCc4ccccc43)[nH]c2c1", "Potency": "inconclusive [inhibitor, partial curve]"},
      {"smiles": "O=C(c1cc(COc2ccc(F)cc2F)on1)N1CC2C[C@@H]3CC1C[C@H](C2)C3", "Potency": "inconclusive [inhibitor, single point]"},
      {"smiles": "COc1cccc(NC(=S)N2CCC(Cc3ccccc3)CC2)c1", "Potency": "active: 17.8 µM"},
      {"smiles": "NS(=O)(=O)c1ccc(NS(=O)(=O)c2ccc(NC(=O)c3ccc(-c4ccccc4)cc3)cc2)cc1", "Potency": "inconclusive [inhibitor, single point]"},
      {"smiles": "CC(Sc1nnc2ccccn12)C(=O)N1CCc2ccccc2C1", "note": "(configuration not stated)", "Potency": "inconclusive [inhibitor, single point]"},
      {"smiles": "COC(=O)COc1ccc(S(=O)(=O)NCc2ccncc2)cc1", "Potency": "active: 2.82 µM"},
      {"smiles": "COc1ccc(C/C(C)=N/NC(=S)Nc2ccccc2)cc1", "Potency": "inconclusive [inhibitor, single point]"},
      {"smiles": "Cc1cc(OCC(=O)Nc2ccc(CN3CCOCC3)cc2)c2c(C)c(C)c(=O)oc2c1", "Potency": "inconclusive [inhibitor, single point]"},
      {"smiles": "CCc1ccc(C2C(C#N)=C(N)OC3=C2C(=O)CCC3)s1", "note": "(configuration not stated)", "Potency": "inconclusive [activator, partial curve]"},
      {"smiles": "O=C1C(c2ccncc2)=C(O)c2ccccc21", "Potency": "inconclusive [inhibitor, partial curve]"},
      {"smiles": "OC1(c2ccccn2)COc2ccccc2O1", "note": "(configuration not stated)", "Potency": "inconclusive [inhibitor, full curve, poor fit]"},
      {"smiles": "O=C(CC12CC3CC(CC(C3)C1)C2)Nc1cccc2ncccc12", "Potency": "inactive"},
      {"smiles": "CC(C)(C)NC(=O)CSc1ccc(C(C)(C)C)cc1", "Potency": "inconclusive [inhibitor, single point]"},
      {"smiles": "O=C(NC(=S)Nc1ncccn1)c1ccccc1Cl", "Potency": "inconclusive [activator, full curve, poor fit]"},
      {"smiles": "Cc1cc(-c2nnc(SCC(=O)NC3CC3)n2C(C)C)cs1", "Potency": "inactive"},
      {"smiles": "CC1CCCCC1NC(=S)NC(=O)c1cccs1", "note": "(configuration not stated)", "Potency": "active: 12.6 µM"},
      {"smiles": "COc1cc(CNc2ccccc2SC)ccc1O", "Potency": "inactive"},
      {"smiles": "CCCCN(CC)c1nc(-c2ccncc2)nc2ccccc12", "Potency": "inactive"},
      {"smiles": "CCc1cccc(NS(=O)(=O)c2ccc3c(c2)NC(=O)C(C)S3)c1", "note": "(configuration not stated)", "Potency": "inconclusive [inhibitor, single point]"},
      {"smiles": "Cc1ccnc(NCc2ccc(Cl)cc2)c1", "Potency": "inactive"},
      {"smiles": "N#CCC(=O)NNC(=S)Nc1ccccc1C(F)(F)F", "Potency": "inconclusive [inhibitor, single point]"},
      {"smiles": "CCCn1cc(NC(=O)c2cc3n(n2)C(C(F)(F)F)CC(c2ccccc2)N3)cn1", "note": "(configuration not stated)", "Potency": "inconclusive [inhibitor, single point]"},
      {"smiles": "CCCCC(=O)O[C@]1(C(=O)CO)[C@H](C)C[C@H]2[C@@H]3CCC4=CC(=O)C=C[C@]4(C)[C@@]3(F)[C@@H](O)C[C@@]21C", "Potency": "inconclusive [inhibitor, single point]"},
      {"smiles": "COn1c(-n2nc(C)cc2C)nc2ccccc2c1=O", "Potency": "active: 7.08 µM"},
      {"smiles": "COc1ccc(NC2CCCN(C(=O)CCc3ccncc3)C2)cc1OC", "note": "(configuration not stated)", "Potency": "inconclusive [inhibitor, single point]"},
      {"smiles": "Cc1sc2ncnc(Sc3nnc4sc5ccccc5n34)c2c1C", "Potency": "inactive"},
      {"smiles": "Cc1noc(C)c1C(=O)Nc1nc2ccc(Cl)cc2s1", "Potency": "inconclusive [inhibitor, single point]"},
      {"smiles": "Cc1ccc(NS(=O)(=O)c2ccc(C3CCCCC3)cc2)cc1", "Potency": "inconclusive [inhibitor, single point]"},
      {"smiles": "O=C(O)c1ccccc1N/N=C/c1cc(Br)cc(Br)c1O", "Potency": "inconclusive [activator, full curve, poor fit]"},
      {"smiles": "CC(=O)N1CCN(c2c(F)c(F)c(C(F)(F)F)c(F)c2F)CC1", "Potency": "inactive"},
      {"smiles": "C/C(CC(=O)Nc1ccccc1[N+](=O)[O-])=N\\NC(=O)COc1ccccc1C", "Potency": "inconclusive [inhibitor, single point]"},
      {"smiles": "CC1(C)CC(n2c(=S)[nH]c3ccccc3c2=O)CCO1", "note": "(configuration not stated)", "Potency": "active: 8.91 µM"},
      {"smiles": "CC12CCC(C(=O)N(c3ccc(Cl)cc3)C1=O)C2(C)C", "note": "(configuration not stated)", "Potency": "inconclusive [activator, single point]"},
      {"smiles": "CC1CC2(C)Oc3ccccc3CC2C(C)C1CNCCCN(C)C", "note": "(configuration not stated)", "Potency": "inconclusive [inhibitor, single point]"},
      {"smiles": "Cc1ccc(/C=C2/NC(=O)N(Cc3ccccc3)C2=O)o1", "Potency": "inconclusive [inhibitor, single point]"},
      {"smiles": "Cc1nn(-c2ccc(C(=O)Nc3nnc(C4CC4)s3)cc2)c(C)c1Cl", "Potency": "inactive"},
      {"smiles": "O=C(NNc1ccc(C(F)(F)F)cc1[N+](=O)[O-])c1ccc(NS(=O)(=O)c2ccc(F)cc2)cc1", "Potency": "inconclusive [inhibitor, single point]"},
      {"smiles": "Cc1ccc(NC(=O)CC2SC(=O)N(c3ccccc3)C2=O)cc1", "note": "(configuration not stated)", "Potency": "inconclusive [inhibitor, single point]"},
      {"smiles": "Cc1ccc(N=C2c3ccccc3C(=O)C2[N+](=O)[O-])cc1C", "note": "(configuration not stated)", "Potency": "inconclusive [activator, single point]"},
      {"smiles": "COc1ccc2nc(NC(=O)c3ccc(Br)s3)sc2c1", "Potency": "inconclusive [inhibitor, single point]"},
      {"smiles": "COCCn1c(=O)c(-c2ccccc2)nc2cnc(Nc3cccc(OC)c3)nc21", "Potency": "inactive"},
      {"smiles": "CCCc1ccc(C(=O)O/N=C(\\N)c2ccccn2)cc1", "Potency": "active: 11.2 µM"},
      {"smiles": "Cc1ccc2nc(-c3ccc4c(c3)NC(=O)CO4)cn2c1", "Potency": "inconclusive [inhibitor, partial curve, poor fit]"},
      {"smiles": "O=[N+]([O-])c1cc(F)c2cccnc2c1O", "Potency": "active: 3.16 µM"},
      {"smiles": "COc1ccccc1CNC(=O)C(C)Sc1ccc(C)cc1", "note": "(configuration not stated)", "Potency": "inactive"},
      {"smiles": "O=C(NC1CCCCC1)C(c1cccs1)N(C(=O)C(F)(F)F)c1ccccc1", "note": "(configuration not stated)", "Potency": "inconclusive [inhibitor, single point]"},
      {"smiles": "CCN(CC)S(=O)(=O)c1ccc(-c2cn3cc(Cl)ccc3n2)cc1", "Potency": "inconclusive [activator, partial curve, poor fit]"},
      {"smiles": "Cn1c(-n2c(CCCN3C(=O)c4ccccc4C3=O)nc3ccccc3c2=O)nc2ccccc21", "Potency": "inconclusive [inhibitor, single point]"},
      {"smiles": "O=C(Nc1ccc2nc3n(c(=O)c2c1)CCCCC3)c1ccccn1", "Potency": "inconclusive [inhibitor, partial curve]"},
      {"smiles": "c1ccc2cc3c(NCCN4CCOCC4)ccnc3cc2c1", "Potency": "active: 12.6 µM"},
      {"smiles": "CC(C)(C)NC(=O)C(=O)NNC(=O)c1cccc(F)c1", "Potency": "inconclusive [inhibitor, single point]"},
      {"smiles": "Cc1ccc(Cn2cnc3ccccc32)cc1C", "Potency": "inconclusive [inhibitor, single point]"},
      {"smiles": "O=C(CSc1nc2c([nH]c3ccccc32)c(=O)n1-c1cccc(Cl)c1)N1CCOCC1", "Potency": "inconclusive [inhibitor, single point]"},
      {"smiles": "CCCCN(CC)S(=O)(=O)c1ccc(C(=O)Nc2nnc(CSC)o2)cc1", "Potency": "active: 1 µM"},
      {"smiles": "Cc1ccsc1/C=C1/SC(N2CCOCC2)=NC1=O", "Potency": "inconclusive [activator, full curve]"},
      {"smiles": "CN1CC2=Cc3ccccc3OC23Oc2ccccc2C=C3C1", "Potency": "inactive"},
      {"smiles": "CCOCCCNC(=S)NCCNc1nc2c(C)cccc2cc1C#N", "Potency": "active: 3.16 µM"},
      {"smiles": "O=C(c1ccc(N2CCN(C(=O)c3ccc(F)cc3F)CC2)cc1)c1cccc(F)c1", "Potency": "inconclusive [inhibitor, partial curve]"},
      {"smiles": "C(=N\\Nc1ncnc2sc3c(c12)CCC3)/c1cccs1", "Potency": "active: 5.01 µM"},
      {"smiles": "CCc1ccccc1N(C)S(=O)(=O)c1ccc(-c2cc(C)no2)s1", "Potency": "inconclusive [inhibitor, single point]"}
    ]}
  ]
}
